The supplement of paper PMC3334620
Whole data set: some 33,000 sequences, median “E-score (-0.5 to 0.5)” near -0.011, cut for the highest 2% near 0.28. The list shows a part of the results.

biological target: T1, Gcr1 (UniProt P07261); assay: PBM E-score (8-mer binding enrichment) (E-score (-0.5 to 0.5)); higher = stronger / more preferred TF binding; most listed sequences are background and not binding sites; details: protein concentration: 100 nM; construct: GST-full length
T1 sequence: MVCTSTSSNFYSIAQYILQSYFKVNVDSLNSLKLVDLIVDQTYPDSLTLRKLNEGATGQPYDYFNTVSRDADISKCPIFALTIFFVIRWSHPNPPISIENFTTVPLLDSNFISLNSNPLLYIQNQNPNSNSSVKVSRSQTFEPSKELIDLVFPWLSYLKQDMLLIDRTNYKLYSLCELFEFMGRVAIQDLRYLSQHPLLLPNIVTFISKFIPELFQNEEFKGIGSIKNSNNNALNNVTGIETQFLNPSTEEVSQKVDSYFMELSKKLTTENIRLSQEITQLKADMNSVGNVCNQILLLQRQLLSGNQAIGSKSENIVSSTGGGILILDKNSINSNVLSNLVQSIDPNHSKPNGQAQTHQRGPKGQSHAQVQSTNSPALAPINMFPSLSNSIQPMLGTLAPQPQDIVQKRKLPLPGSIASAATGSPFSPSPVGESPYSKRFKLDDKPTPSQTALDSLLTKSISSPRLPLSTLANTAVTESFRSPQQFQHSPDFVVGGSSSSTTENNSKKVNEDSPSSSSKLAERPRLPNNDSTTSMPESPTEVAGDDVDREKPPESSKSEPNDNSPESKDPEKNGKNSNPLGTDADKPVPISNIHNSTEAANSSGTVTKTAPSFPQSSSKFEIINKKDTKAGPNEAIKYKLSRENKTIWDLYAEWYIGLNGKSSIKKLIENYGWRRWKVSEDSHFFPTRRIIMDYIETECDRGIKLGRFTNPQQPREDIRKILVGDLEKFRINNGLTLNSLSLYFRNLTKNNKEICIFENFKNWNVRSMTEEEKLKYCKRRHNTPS
Summary of the method: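 The E-score, a modified Wilcoxon-Mann-Whitney statistic, was computed by the Universal PBM Analysis Suite for every ungapped eight-base word pooled with its reverse complement. Scans behind it were normalised with masliner after bound GST-tagged yeast transcription factors were detected with fluorescent anti-GST. The proteins, at about 100-200 nM, had been applied to universal all-10-mer Agilent arrays made double-stranded by primer extension.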

Sequence	PBM E-score
CGTCTCGC	-0.13
AGCAACTC	-0.123
CAAGCAGG	-0.0143
CACAGACC	-0.00159
CTCCGTTC	-0.123
AATCTAGC	0.0844
TAGCATCA	0.0464
TCCCAAAA	0.244
GCATCAGC	-0.00234
CTAAAAGC	-0.00957
TGCCACAA	0.173
CAACATTC	0.0583
CGTTACGC	0.00104
CCCCCTTC	-0.312
ATTCCGCA	0.155
CTTTGAGA	0.0369
AACCCATG	-0.0195
AAATGTTC	0.00698
AGTATCAG	-0.0443
ATGGCAAG	-0.118
ACGGGACC	-0.117
CTCGAGGA	-0.0231
ACATGGTG	0.0329
AAGAGCAT	0.114
TAACGGAA	0.135

Sequence	PBM E-score
ACCCGGGT	-0.236
CACTTGGG	-0.109
AGCGCTTC	0.12
CCCGAACG	-0.00173
CAAAATGG	0.238
ATTCATTG	-1e-05
GCTTGCGA	-0.133
ACCACGAC	-0.0858
AGATGGCT	-0.032
AAGCTCAC	-0.0779
CCCCTCGG	-0.126
CTACATAG	-0.0452
CTGATCCC	0.0396
GACCCGCC	-0.217
ACAACGGA	0.0864
ATCACATG	-0.0474
GCCAATAC	-0.146
ATAAGTGA	-0.119
AATCAGGA	0.0641
AGCTGCCC	0.217
AGCGTAGA	-0.0252
CGTCGCGC	-0.134
GGACGATA	0.0385
AGCCGCGA	0.103
ATACGAGG	0.0354

Sequence	PBM E-score
GTACACCA	-0.179
CAGACTCA	-0.268
ACTCGCCG	-0.00848
CATCCCGC	-0.0239
GGACAGAA	0.0154
ATGAGCGC	-0.108
CGCTCTTC	-0.00286
AAAGATTA	0.0511
AAACTAGT	0.0835
GATTCCGA	0.205
GACGGGCA	-0.103
CGCAGTAC	-0.321
AGCTCATC	-0.118
AACTCGAA	0.143
CATGGCTA	-0.148
GCTTATTA	0.0315
ACGTTATG	-0.158
CCTAACAG	0.0692
TCGCCTAA	0.0844
AGGAAAGG	0.00229
ACACGAAG	0.238
TTAAGGAA	0.219
ACCGTGAG	-0.119
CTAGATCA	0.0347
GATGCAAC	-0.0871

Sequence	PBM E-score
CTTGCTGC	0.0636
CGTTCAAC	0.00342
AGTTAGCC	-0.136
CAAACCCG	-0.213
GATCTATA	0.0648
ACCTGTCC	-0.128
CTGGCCAC	-0.152
ATGTAAGG	0.127
CGCTTCTC	0.116
GACTAATA	-0.017
CCAGAGCC	0.0627
CAGCGTCG	0.127
ACGGCCGA	-0.161
GGAACTGA	-0.0451
ACGGATAG	0.0102
AGAATGCC	0.00241
GATTTGTA	-0.0426
CGCTTTAG	0.0843
GTTGTTGA	0.112
AGTGAACA	-0.106
TGGTCGAA	-0.269
TAGAAATA	-0.0925
GTTTCCGA	0.109
CCACTATA	0.276
GCCGGAGC	0.227

Sequence	PBM E-score
CCCATTCG	0.135
GCAGGACC	0.0308
AAGCCCTG	-0.198
AATTTTGC	0.0363
AATATGCG	0.0425
GAAATGAC	-0.122
CCCCATAA	0.201
CCTATTAG	0.0477
CCATATGC	-0.00395
AGGGATTC	0.276
CAGCATCG	0.0157
CGCTGGCA	0.0601
CCGATCCC	-0.184
CACAGATC	0.0515
AATGGGTC	0.00058
CGTCGTAA	0.0685
TCTTGCCA	-0.216
TCAGGGAA	-0.0045
AAATGCAG	-0.175
GCGCCATA	0.254
AGTTTGCA	-0.0214
AGAGACTA	-0.0782
CACAGCTC	-0.255
ACCTAGTG	0.129
CAACTTCC	0.321

Sequence	PBM E-score
AAATTCTG	0.111
AAGATTGG	0.153
GGCACGAC	-0.182
ATCTACTG	0.105
GCACGTTA	-0.0593
ACCGACGT	-0.164
GTCAGTTA	-0.0622
AGCACAAT	-0.0977
ACACCATC	-0.174
GTAATAAA	0.106
CCGGCAAA	-0.0617
AAAGACAA	0.0383
ACCTGTTC	0.126
CACAGTGA	-0.105
AACGGTTC	-0.172
CATGTGGG	-0.0685
CATGTTTA	0.00797
ACCATAAT	0.18
CATTCACA	-0.0409
ACTTGCTC	0.001
CTCTTCTC	-0.156
CCCAGGCG	0.114
AATGGCAC	0.0245
GCAGGTAA	0.0517
GTCCCCAA	0.121

Sequence	PBM E-score
ATACCCAA	0.2
AGAAGCTA	0.338
CAAGGCGG	0.0282
ACGTTGAC	-0.267
ATCTGCTA	-0.212
GTGGTAGA	-0.166
AATGCGCG	-0.108
ACACGCCT	-0.087
CTCGCGCA	-0.262
AATGACCG	-0.253
GCTGATAC	0.0262
CCCCAGGA	-0.0974
CCGTCGAC	-0.201
GAGGTCAC	-0.0616
CGACCCCC	-0.203
CCACAGAC	-0.0659
GGACTCAC	-0.173
ACCGGTGG	-0.0926
TAATCACA	0.0794
AATCGTCG	-0.258
ACCTTAAG	0.0276
CCCCGAAA	0.119
ATGAACCG	-0.155
ACGAAAGC	-0.0154
ATCTGGTG	0.208

Sequence	PBM E-score
CATATAGA	0.21
GCCGATGA	-0.094
GGCTTCAC	-0.14
GAGACACC	0.0228
AGTCTGAT	-0.062
CGAGGACA	-0.218
ACGCGATC	-0.0568
ATGCCCAA	-0.0436
AACGCCGG	-0.0916
GACCTAAC	0.0579
AAGTGTGT	-0.144
GGAAAGGA	-0.0351
CTTCTCGA	-0.0527
CTAAACGA	-0.00769
ATTTTTAC	0.0328
AACCTAGT	0.224
ACTGTGTG	-0.111
CACGACCC	-0.0368
GCGTAGAA	-0.025
ACAGTAGT	-0.00605
CGTCTATA	0.129
ACACAAAA	0.141
CTTTCCCC	0.0545
ACTGAAAC	0.0485
CCGCCGGC	-0.0753

Sequence	PBM E-score
CCGTCAGA	-0.178
ATGTTGTA	0.104
AGCTGCTG	0.248
AGCACCCA	0.351
ATACGAAC	0.0987
GAGGGGGA	-0.17
GCCATGGC	-0.161
ACAGAAGC	0.271
CTCCCAGA	0.136
AGTTCCTA	0.116
GGCTCCCC	0.228
ATAATGCG	-0.00804
CGGGATAC	0.304
ATCATGTG	-0.277
AACTTAGT	-0.119
ACGGCAGA	0.0602
CATCGAAC	-0.187
AAACTACA	0.201
GCCTGGGA	0.104
ACTGATCG	-0.109
GTGAAGTA	-0.172
CCCGAGGG	-0.106
TATAACAA	0.0961
ATTTCGTC	0.0151
CCTGTCAC	0.163

Sequence	PBM E-score
AGTCGAAT	-0.0217
ACCCACCT	-0.117
AACCGTTC	-0.0422
AGGTGGGC	-0.163
CCGACAAC	0.0732
CCTGTACC	0.1
AATGAGAA	-0.0333
ACGCACAC	-0.0982
AGTGTGAT	-0.12
ATAAGCGA	-0.0589
CGTCACAG	-0.0234
GAGAAGTA	-0.0701
CGCACGAC	-0.161
ATTGCACA	-0.0616
CGGGGAGC	0.0778
AATACCTG	0.106
ACTCGCTA	-0.197
AAACCACT	0.0327
GCCCGGAC	-0.137
AATAGCGA	0.072
CTGATTGA	-0.0741
CCTCCGAA	0.136
GAACAGGC	0.00482
ACCGATTA	0.113
AATAGGTC	0.00851

Sequence	PBM E-score
AAAGGCGG	-0.0258
TAGGCAAA	-0.0552
GCAATCAC	-0.29
AATGAGGC	-0.111
ATTCCCAC	-0.0204
GCACTTCC	0.168
CTCTTAAC	-0.0399
ACGAGAAC	-0.0918
CTGACTCC	0.0542
GCACGGTA	-0.172
GCCCGCAC	-0.00545
ACGATATG	-0.0605
ATGTACGC	-0.193
ACATTTAA	0.151
CGAGAGCG	-0.0662
ACCCATAT	0.168
GTTTACGA	-0.0324
AACGATGA	0.0336
CAGGCGCG	-0.0119
CCGCTCCG	0.0276
ACTCGGAG	-0.0633
TACTATAA	0.123
CAGCAACC	0.287
TGTATAAA	-0.038
AAACCCTC	-0.0982

Sequence	PBM E-score
ACAGAACC	-0.0272
ACCTGATC	-0.248
TATCAAGA	-0.0423
AACGCTTG	-0.0993
AGGCATGA	-0.196
TCGAAAAA	0.126
ACTCCTCC	-0.145
AATGCTAT	0.0311
GGGCTAGA	-0.19
TACTTCGA	-0.0369
ACGTAAAC	-0.163
AAACCGTC	-0.286
AACAGCGC	-0.0848
GGTTCCAA	0.391
ACAACTAG	0.0278
TCTCCTAA	0.184
AAGCCTCA	0.0383
GGGTCTCA	-0.126
GTCGGCAA	0.0614
CCTGTTGC	0.0154
CTAATTGC	0.0145
CAGCGCCC	0.258
CAAATGCC	0.00666
CCGAGCGA	0.0373
GGGATAAC	0.0951

Sequence	PBM E-score
AAGACCCG	-0.0294
AATAGGCT	-0.00584
ACTTTATC	0.0991
GGGCCTCA	-0.041
GGAGCTTA	0.116
GAACTCCC	0.0644
GACCCCGA	0.0401
GGGTGGAC	-0.0944
CGATTTGA	-0.115
ACCGACTA	-0.158
AGCTGCAA	-0.0289
AAATCAGT	0.0327
ATTGGAGC	0.127
ATAACCAC	-0.0605
GTCACGAC	0.101
CCCAACAG	0.00411
GGTTCCCA	0.327
GGAATGAC	-0.105
CGCCGTTA	0.111
AAGTCACA	0.156
ACGTTAGA	0.109
CAGACGAC	-0.216
CAAACGCC	-0.2
AGTACCTC	-0.178
GTTTAACA	-0.17

Sequence	PBM E-score
GTGCCTTA	0.0187
CAAGTTGC	0.154
CCTCCACA	0.0108
AGTGATAC	0.0563
ATGTCTAA	-0.0649
GAACAGGA	0.127
GATACGAC	0.0658
GGCTTCCC	0.433
AGGTCGAT	-0.186
GACACCCA	0.0834
GGGCCAGA	0.0769
AAGAATCT	0.251
ACGTTCAT	-0.0953
GAACCAAC	0.00451
ATCCGCCA	-0.0303
GATATCGA	-0.00142
ACTCTTAG	0.166
GATCTCCA	0.0206
AGCACTAT	-0.0246
